*1 amine or outer side, *2 acyl side, *3 side chain or, on linkers, in order; H or OH if unused. Where a SMILES comes first, the peptide text is derived from it. [ ]: non-standard residue; d: D form. The star is where a group is joined. ξ: configuration not given here. ξ(3-Amino-2-oxopentanoyl) = CCC(N[*:1])C(=O)C(=O)[*:2]; Pro(trans-4-Ph) = O=C(O)[C@@H]1C[C@@H](c2ccccc2)CN1; ξPro(4R-NH2) = O=C(C1C[C@@H](N[*:3])CN1[*:1])[*:2]; Pro(4,4-S(CH2)3S) = O=C(O)[C@@H]1CC2(CN1)SCCCS2; X80 = O=C(c1ccccc1)[C@H]1CCCC[C@H]1C(=O)*; Benzoyl(2-COOH) = O=C(O)c1ccccc1C(=O)*; X73 = O=C(O)c1c(F)c(F)c(C(=O)*)c(F)c1F; Isobutyloxycarbonyl = CC(C)COC(=O)*; X91 = O=C(O)[C@H]1CCCC[C@@H]1C(=O)*; ξPhg(3-Cl) = NC(C(=O)O)c1cccc(Cl)c1; X15 = CC(=O)Nc1ccc(S(=O)(=O)*)cc1; X4 = CCCCC(N[*:1])C(=O)C(=O)[*:2]; Hyp = O=C(O)[C@@H]1C[C@@H](O)CN1; X2 = CCCC(N[*:1])C(=O)C(=O)[*:2]; X14 = O=C(O)Cc1ccc(CC(=O)*)cc1; CH2CO2tBu = CC(C)(C)OC(=O)C*; Chg = N[C@H](C(=O)O)C1CCCCC1; Phg = N[C@H](C(=O)O)c1ccccc1; ξChg = NC(C(=O)O)C1CCCCC1; ξPhg = NC(C(=O)O)c1ccccc1; X53 = CC1CCCCC1C(=O)*; ξNle = CCCCC(N)C(=O)O; OBn = c1ccc(CO*)cc1; Bn = c1ccc(C*)cc1; OtBu = CC(C)(C)O*; tBu = CC(C)(C)*
These compounds were tested against HCV NS3/NS4A protease (strain 1a) (Hepatitis C virus genotype 1a, UniProt P27958) (assay: biochemical). Conditions: Compounds prepared by Solid Phase Synthesis, Table 3; read-out: Ki* CLASS.

SMILES | Ki
CCCCC(NC(=O)C(CCCC)NC(=O)CNC(=O)C(=O)C(CCC)NC(=O)[C@@H]1C[C@@H](OCc2ccccc2)CN1C(=O)C(NC(=O)[C@H]1CCCC[C@@H]1C(=O)O)C1CCCCC1)C(N)=O (some centres unmarked) (X91-[ξChg][Hyp](Bn)[X2]G[ξNle][ξNle]-NH2) | 0.101 to 1 µM
CCCCC(NC(=O)CNC(=O)C(=O)C(CCC)NC(=O)[C@@H]1C[C@@H](OCC(=O)OC(C)(C)C)CN1C(=O)C(NC(=O)OCC(C)C)C1CCCCC1)C(N)=O (some centres unmarked) (Isobutyloxycarbonyl-[ξChg][Hyp](CH2CO2tBu)[X2]G[ξNle]-NH2) | 0.101 to 1 µM
CCC(NC(=O)[C@@H]1C[C@@H](OC(C)(C)C)CN1C(=O)[C@@H](NC(=O)Cc1ccc(CC(=O)O)cc1)C1CCCCC1)C(=O)C(=O)NCC(=O)N[C@H](C(N)=O)c1ccccc1 (some centres unmarked) (X14-[Chg][Hyp](tBu)[ξ(3-Amino-2-oxopentanoyl)]G[Phg]-NH2) | 0.101 to 1 µM
CCCCC(NC(=O)[C@@H]1C[C@@H](OCc2ccccc2)CN1C(=O)C(NC(=O)[C@@H]1CCCC[C@@H]1C(=O)c1ccccc1)C1CCCCC1)C(=O)C(=O)NCC(=O)NC(C(N)=O)c1ccccc1 (some centres unmarked) (X80-[ξChg][Hyp](Bn)[X4]G[ξPhg]-NH2) | 0.101 to 1 µM
CCCC(NC(=O)[C@@H]1C[C@@H](OCc2ccccc2)CN1C(=O)C(NC(=O)OCC(C)C)C1CCCCC1)C(=O)C(=O)NCC(=O)NC(C(N)=O)c1ccccc1 (some centres unmarked) (Isobutyloxycarbonyl-[ξChg][Hyp](Bn)[X2]G[ξPhg]-NH2) | 0.001 to 0.1 µM
CCCC(NC(=O)[C@@H]1C[C@@H](OC(C)(C)C)CN1C(=O)[C@@H](NC(=O)c1c(F)c(F)c(C(=O)O)c(F)c1F)C1CCCCC1)C(=O)C(=O)NCC(=O)NC(C(N)=O)c1cccc(Cl)c1 (some centres unmarked) (X73-[Chg][Hyp](tBu)[X2]G[ξPhg(3-Cl)]-NH2) | 0.101 to 1 µM
CCCC(NC(=O)[C@@H]1C[C@@H](OC(C)(C)C)CN1C(=O)[C@@H](NC(=O)c1ccccc1C(=O)O)C1CCCCC1)C(=O)C(=O)NCC(=O)N[C@H](CC(=O)OC(C)(C)C)C(N)=O (some centres unmarked) ({Benzoyl(2-COOH)}-[Chg][Hyp](tBu)[X2]G[dD](OtBu)-NH2) | > 1 µM
CCCC(NC(=O)[C@@H]1C[C@@H](OCc2ccccc2)CN1C(=O)C(NC(=O)C1CCCCC1C)C1CCCCC1)C(=O)C(=O)NCC(=O)NC(C(N)=O)c1ccccc1 (some centres unmarked) (X53-[ξChg][Hyp](Bn)[X2]G[ξPhg]-NH2) | 0.101 to 1 µM

Same assay, conditions: HCV protease continuous assay results, Table 1; read-out: Ki* Range

Ki | SMILES
> 1 µM | C=CCOC(=O)CNC(=O)C(=O)[C@H](CCC)NC(=O)[C@@H]1C[C@@H](OCC(=O)OC(C)(C)C)CN1C(=O)OCC1c2ccccc2-c2ccccc21 [Example 1]
> 1 µM | C=CCOC(=O)CNC(=O)C(=O)C(CCC)NC(=O)[C@@H]1CCCN1C(=O)[C@@H](NC(=O)OC(C)(C)C)C1CCCCC1 (some centres unmarked) [Example 44]
> 1 µM | C=CCCC(NC(=O)[C@@H]1C[C@@H](OC(C)(C)C)CN1C(=O)[C@@H](NC(=O)OCC(C)C)C(C)(C)C)C(=O)C(=O)NCC(=O)O (some centres unmarked) [Example 275]
> 1 µM | CCCC(NC(=O)[C@@H]1CC2(CN1C(=O)C(NC(=O)OC(C)(C)C)C(C)(C)C)SCCCS2)C(=O)C(=O)NCC(=O)O (some centres unmarked) [Example 217]
> 1 µM | CCCC(NC(=O)[C@@H]1C[C@@H](OCc2ccccc2)CN1C(=O)[C@@H](NC(=O)c1cc(Cl)c(Cl)cc1C(=O)O)C1CCCCC1)C(=O)C(=O)NCCOC(C(N)=O)c1ccccc1 (some centres unmarked) [Example 103]
> 1 µM | CCCOC(=O)CNC(=O)C(=O)C(CCC)NC(=O)[C@@H]1C[C@@H]2CCCC[C@@H]2CN1C(=O)OCc1ccccc1 (some centres unmarked) [Example 48]
0.001 to 0.1 µM | C=CCC(NC(=O)[C@@H]1[C@@H]2[C@H](CN1C(=O)[C@@H](NC(=O)OC(C)(C)C)C(C)(C)C)C2(C)C)C(=O)C(=O)NCC(=O)NCc1ccccc1 (some centres unmarked) [Example 359]

SMILES | Ki
CCCC(NC(=O)[C@@H]1C[C@@H](c2ccccc2)CN1C(=O)[C@@H](NC(=O)OCC(C)C)C1CCCCC1)C(=O)C(=O)NCC(=O)NC(C(=O)OCc1ccccc1)C1CCCCC1 (stereo partly drawn) [Example 81] (Isobutyloxycarbonyl-[Chg][Pro(trans-4-Ph)][X2]G[ξChg]-OBn) | > 1 µM
CCCC(NC(=O)[C@@H]1CCCN1C(=O)[C@@H](NC(=O)OCC(C)C)C(C)C)C(=O)C(=O)NCC(=O)N[C@H](C(=O)O)[C@@H](C)CC (some centres unmarked) [Example 24] (Isobutyloxycarbonyl-VP[X2]GI-OH) | > 1 µM
CCCC(NC(=O)[C@@H]1CC2(CN1C(=O)[C@@H](NC(=O)[C@H](CC(C)C)NC(C)=O)C1CCCCC1)SCCCS2)C(=O)C(=O)NCC(=O)NC(C(N)=O)c1ccccc1 (some centres unmarked) [Example 118] (Ac-L[Chg][Pro(4,4-S(CH2)3S)][X2]G[ξPhg]-NH2) | 0.001 to 0.1 µM
CCCC(NC(=O)[C@@H]1CCCN1C(=O)[C@@H](NC(=O)[C@@H](NC(C)=O)C(C)C)C(C)C)C(=O)C(=O)NCC(=O)O (some centres unmarked) [Example 37] (Ac-VVP[X2]G-OH) | > 1 µM
CCCC(NC(=O)[C@@H]1C[C@@H](c2ccccc2)CN1C(=O)[C@@H](N)C1CCCCC1)C(=O)C(=O)NCC(=O)N[C@H](C(N)=O)c1ccccc1 (stereo partly drawn) [Example 72] (H-[Chg][Pro(trans-4-Ph)][X2]G[Phg]-NH2) | > 1 µM

Same assay, conditions: Table 4; HCV NS3/NS4A protease, spectrophotometric assay, 30° C., pH 6.5; read-out: Ki* Range

SMILES | Ki
CCCC(NC(=O)[C@@H]1C[C@@H](NC(=O)Nc2cccc(Cl)c2)CN1C(=O)[C@@H](NC(=O)OCC(C)C)C1CCCCC1)C(=O)C(=O)NCC(=O)N[C@H](C(N)=O)c1ccccc1 (some centres unmarked) | 0.101 to 1 µM
CCCC(NC(=O)C1C[C@@H](NS(=O)(=O)c2ccc(NC(C)=O)cc2)CN1C(=O)[C@@H](NC(=O)OCC(C)C)C1CCCCC1)C(=O)C(=O)NCC(=O)N[C@H](C(N)=O)c1ccccc1 (stereo partly drawn) (Isobutyloxycarbonyl-[Chg][ξPro(4R-NH2)](X15)[X2]G[Phg]-NH2) | 0.001 to 0.1 µM

Same assay, conditions: Table 5; HCV NS3/NS4A protease, 30° C., pH 6.5; read-out: Ki* Range

Ki | SMILES
0.101 to 1 µM | C=CCNC(=O)C(=O)C(CCC)NC(=O)[C@@H]1[C@H]2[C@@H](CN1C(=O)C(NC(=O)OCCOc1ccccc1)C1CCCCC1)C2(C)C (some centres unmarked)

From US7592316B2, “Peptides as NS3-serine protease inhibitors of hepatitis C virus” (Schering Corporation, priority 2000, dated 2009)
